Experimental data taken from PubChem BioAssay (NCATS).
The shares of active, inactive and inconclusive entries below differ from those in the screen. No potency is given beside an inconclusive call; the fits are too rough. The source made the active and inactive calls. Calls follow the shape of the dose curve; as a rule, active = well fitted curve in the direction sought with a large enough effect; inconclusive = small, poorly fitted or top-dose-only effect, or another doubt; inactive = no such curve, though single readings can be large; an effect the other way counts as inactive or inconclusive.

Assays:
[1] = BET inhibitor-based combinations targeting novel dependencies in MECOM-rearranged (r) AML: OCI-AML3 cell line (AID 2202232); settings: CellTiter-Glo luminescence, 48 h; Potency: OCI-AML3 viability; viability (% of control): at 46 µM (top of the series); also: nearly all actives have a fitted effect of over 35% in size;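 as to viability (% of control): plate controls were DMSO vehicle wells for no effect and wells without cells for full effect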
In short: (§1)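 Here, 11-point titrations of each agent were applied to 500 seeded cells and incubated 48 hr; CellTiter-Glo signal, scaled against DMSO and empty wells, was integrated as AUC, then Z-scored within the individual line.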

[2] = BET inhibitor-based combinations targeting novel dependencies in MECOM-rearranged (r) AML: MV-4-11 cell line (AID 2202233); settings: MV-4-11 AML viability, CellTiter-Glo luminescence, 48 h; viability, % of control: at 46 µM (top of the series) unless noted; also: nearly all actives have a fitted effect of over 45% in size;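 as to viability, % of control: plate controls were DMSO for no effect and blank wells for full effect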
In short: (§2)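 Normalized to DMSO and empty-well controls, the luminescence data from CellTiter-Glo after 48 hr drug exposure were fitted across 11 concentrations. Reported metrics are area under the dose-response curve and its Z-transformed form.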

[3] = BET inhibitor-based combinations targeting novel dependencies in MECOM-rearranged (r) AML: UCSD-AML1 cell line (AID 2202235); settings: UCSD-AML1 AML cells viability, CellTiter-Glo, 48 h; viability (% of control): at 46 µM (top of the series); also: nearly all actives have a fitted effect of over 40% in size;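 as to viability (% of control): plate controls were DMSO vehicle wells for no effect and blank wells for full effect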
In short: as §2

[4] = BET inhibitor-based combinations targeting novel dependencies in MECOM-rearranged (r) AML: AML-191 cell line (AID 2202236; also: nearly all actives have a fitted effect of over 35% in size;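 as to viability (% of control): plate controls were vehicle wells for no effect and wells without cells for full effect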)
In short: as §1

[5] = BET inhibitor-based combinations targeting novel dependencies in MECOM-rearranged (r) AML: HNT-34 cell line (AID 2202234); also: nearly all actives have a fitted effect of over 35% in size;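 as to viability (% of control): plate controls were vehicle wells for no effect and cell-free wells for full effect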
In short: as §2

[6] = BET inhibitor-based combinations targeting novel dependencies in MECOM-rearranged (r) AML: AML-194 cell line (AID 2202237; also: nearly all actives have a fitted effect of over 40% in size;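 as to viability (% of control): plate controls were vehicle wells for no effect and wells without cells for full effect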)
In short: as §1
Potency is read from the fitted curve at half-maximal effect; tags tell the direction and shape of the fitted curve.

## CN[C@@H](C)[C@H]1[C@H](O)C[C@@]2(C)[C@@H]3CC[C@H]4C(C)(C)[C@@H](NC)CC[C@@]45C[C@@]35CC[C@]12C
[1]
  viability (% of control): inactive: 106% [at 8.46 µM]
[2]
  viability, % of control: inactive: 115% [at 8.46 µM]
[3]
  viability (% of control): inactive: 111% [at 8.46 µM]

## Cn1ncc(Cl)c1-c1cc(C(=O)N[C@H](CN)Cc2cccc(F)c2)sc1Cl
[1]
  Potency: inconclusive [inhibitor, full curve, poor fit]
[2]
  Potency: inconclusive [inhibitor, partial curve, poor fit]
[3]
  Potency: inconclusive [inhibitor, partial curve, poor fit]
[4]
  Potency: active: 16.6 µM

## Cc1n[nH]c(C)c1Cc1sc2c(c1C(=O)N1C[C@H](O)CO1)c(=O)n(C)c(=O)n2CC(C)C
[1]
  Potency: inconclusive [inhibitor, single point]
[2]
  Potency: inactive
[3]
  Potency: inactive

## Cc1cc(OCCCS(C)(=O)=O)cc(C)c1-c1cccc(COc2ccc3c(c2)OC[C@H]3CC(=O)O)c1
[1]
  Potency: inactive
[2]
  Potency: inactive
[3]
  Potency: inconclusive [inhibitor, single point]
[4]
  Potency: inactive

## Nc1nc(OC(c2ccc(-c3cccc(F)c3)cc2)C(F)(F)F)cc(-c2ccc(C[C@H](N)C(=O)O)cc2)n1 (stereo partly specified)
[1]
  viability (% of control): inconclusive: 72.4% [inhibitor]
[2]
  Potency: inconclusive [inhibitor, partial curve, poor fit]
[5]
  Potency: inconclusive [inhibitor, single point]
[6]
  Potency: inactive

## COc1ccc2c(Oc3ccc(NC(=O)c4c(C)n(CC(C)(C)O)n(-c5ccccc5)c4=O)nc3)ccnc2c1
[1]
  Potency: inconclusive [inhibitor, full curve, poor fit]
[2]
  Potency: active: 0.372 µM
[3]
  Potency: inconclusive [inhibitor, single point]
[4]
  Potency: inconclusive [inhibitor, partial curve]
[6]
  Potency: inconclusive [inhibitor, full curve]

## C[C@H](Nc1nc(N[C@H](C)C(F)(F)F)nc(-c2cccc(Cl)n2)n1)C(F)(F)F
[1]
  Potency: inconclusive [inhibitor, partial curve, poor fit]
[2]
  Potency: inconclusive [inhibitor, partial curve, poor fit]
[3]
  Potency: inactive
[4]
  Potency: inactive

## O=C(O)CNC(=O)c1nc(Cl)c2ccccc2c1O
[1]
  Potency: inactive
[2]
  Potency: inactive
[3]
  Potency: inconclusive [inhibitor, single point]
[4]
  Potency: inactive
[6]
  Potency: inactive

## Cc1onc(-c2ccc(F)cc2)c1COc1ccc(C(=O)N2CCS(=O)(=O)CC2)cn1
[1]
  Potency: inactive
[2]
  Potency: inconclusive [inhibitor, full curve, poor fit]
[4]
  Potency: inactive

## CC1(C)O[C@@H]2C[C@H]3[C@@H]4CCC5=CC(=O)C=C[C@]5(C)[C@@]4(F)[C@@H](O)C[C@]3(C)[C@]2(C(=O)CO)O1
[1]
  Potency: inactive
[2]
  Potency: inactive
[4]
  Potency: inconclusive [inhibitor, full curve, poor fit]
[6]
  Potency: inconclusive [inhibitor, full curve, poor fit]

## COc1ccc(Nc2nccc(NCCO)n2)cc1
[1]
  Potency: active: 23.5 µM
[2]
  Potency: inconclusive [inhibitor, partial curve, poor fit]
[4]
  Potency: inactive

## Cc1ccc(C(=O)c2cc(O)c(O)c([N+](=O)[O-])c2)cc1
[1]
  Potency: inactive
[2]
  Potency: inactive
[4]
  Potency: inconclusive [inhibitor, partial curve, poor fit]
[6]
  Potency: inactive

## OC[C@H]1OC(O)C[C@@H](O)[C@H]1O (stereo partly specified)
[1]
  Potency: inactive
[5]
  Potency: inactive

## CCCCOCCOc1nc(-c2ccc(C(=O)O)c(F)c2)sc1C
[1]
  Potency: inconclusive [inhibitor, single point]
[5]
  Potency: inconclusive [inhibitor, partial curve, poor fit]

## CN1C2CCC1CC(OC(=O)C(CO)c1ccccc1)C2 (stereo unspecified)
[1]
  Potency: inconclusive [inhibitor, full curve, poor fit]
[2]
  Potency: inactive
[6]
  Potency: inactive

## C=CCN1C[C@H](C(=O)N(CCCN(C)C)C(=O)NCC)CC2c3cccc4[nH]cc(c34)C[C@H]21 (stereo partly specified)
[1]
  Potency: active: 10.5 µM
[2]
  Potency: inconclusive [inhibitor, partial curve, poor fit]
[6]
  Potency: inactive
